Reference: PubChem BioAssay AID588591 (National Center for Advancing Translational Sciences (NCATS), 2011)
In all, about 390,000 compounds went through this assay and about 4,700 (1.2%) were called active. Roughly 4% stayed inconclusive and do not appear here. Calls come from the whole dose curve; as a rule, active = well fitted inhibition curve with a large enough effect; inconclusive = small, poorly fitted or top-dose-only effect, or another doubt; inactive = no such curve, though single readings can be large or run the other way. This is a selection; strong and weak results do not stand in their true shares. Some structures have more than one record in an assay (separate samples or runs), and their calls can disagree.

Biological target: DNA polymerase eta (Homo sapiens) (UniProt Q9Y253)
Chain of UniProt Q9Y253 (Q9Y253 whole entry, looked up): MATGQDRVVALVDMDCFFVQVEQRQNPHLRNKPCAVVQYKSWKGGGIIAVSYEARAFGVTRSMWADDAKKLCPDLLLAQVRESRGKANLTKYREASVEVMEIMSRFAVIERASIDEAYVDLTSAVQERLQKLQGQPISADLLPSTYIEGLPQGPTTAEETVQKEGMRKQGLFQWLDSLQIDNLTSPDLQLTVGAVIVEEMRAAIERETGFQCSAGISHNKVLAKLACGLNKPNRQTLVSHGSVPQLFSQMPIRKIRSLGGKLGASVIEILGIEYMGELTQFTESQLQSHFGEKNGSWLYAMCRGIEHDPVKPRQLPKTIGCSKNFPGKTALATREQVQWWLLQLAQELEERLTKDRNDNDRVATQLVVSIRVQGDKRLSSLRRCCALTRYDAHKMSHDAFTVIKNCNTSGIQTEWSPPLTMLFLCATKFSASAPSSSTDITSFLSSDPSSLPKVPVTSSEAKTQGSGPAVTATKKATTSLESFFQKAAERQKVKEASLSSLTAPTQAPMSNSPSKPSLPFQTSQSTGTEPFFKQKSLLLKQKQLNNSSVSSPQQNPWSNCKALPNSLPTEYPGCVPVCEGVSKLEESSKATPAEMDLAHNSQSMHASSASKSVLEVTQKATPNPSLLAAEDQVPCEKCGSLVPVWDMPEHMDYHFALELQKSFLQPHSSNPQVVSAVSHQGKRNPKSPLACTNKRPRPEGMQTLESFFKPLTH
Test: qHTS for Inhibitors of Polymerase Eta
Settings: recombinant Pol eta, fluorescent DNA replication assay; series mostly up to 114 µM; activity change, negative = inhibition: at the top concentration
Outline: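 Fluorescent replication assay: 50 nM final substrate added after a 15 min room-temperature compound preincubation with 10 nM enzyme. Signal taken at 0 min and again at 10 min.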
% is set by controls: 0 for no effect and ±100 for the full control effect; potency is the fitted concentration of half-maximal effect.

| Compound | activity change, negative = inhibition | Potency |
| --- | --- | --- |
| CCCCN(C)CC(O)Cn1cc(/C=C/C(=O)c2ccc(C)cc2)c2ccccc21 (stereo not given) | inactive: -20% |  |
| Cc1cccc(N=C2NC(=O)/C(=C/C=C/c3ccco3)S2)c1C |  | active: 1.78 µM |
| Cc1onc(-c2ccccc2)c1NC(=O)Nc1ccc(OC(F)F)cc1 | inactive: 30.8% |  |
| C[C@H]1CN([C@@H](C)CO)C(=O)c2cc(Br)cnc2O[C@@H]1CN(C)S(=O)(=O)c1ccccc1 | inactive: -12.7% |  |
| CCCC(c1nnnn1Cc1cccs1)N1CCN(C2CCCC2)CC1 (stereo not given) | inactive: 3.98% |  |
| CCOc1ccc(Oc2ccccc2NS(=O)(=O)c2ccc(CCC(=O)O)cc2)cc1 |  | active: 35.5 µM |
| O=C(Cc1ccc(Cl)cc1)NNC1CC(=O)N(c2ccc3ccccc3c2)C1=O (stereo not given) | inactive: 38.7% |  |
| Cc1nc2ccc(C(=O)O)cc2c2c1CC(C)S2 (stereo not given) |  | active: 2.51 µM |
| CCCn1nnc(NC(=O)/C=C/c2ccc(C(C)C)cc2)n1 | inactive: 36.1% |  |
| COc1ccc(/C=N/NC(=O)c2ccc(NC(=O)c3cccc([N+](=O)[O-])c3)cc2)c(C(=O)O)c1OC |  | active: 79.4 µM |
| CCC(CC)NC(=O)Cc1ccc(S(=O)(=O)N2CCOCC2)s1 |  | active: 10 µM |
| Oc1ccc(NCc2ccc(OCc3ccccc3)cc2)cc1 | inactive: -6.96% |  |
| CCN1/C(=C/C=C/c2oc3ccc4ccccc4c3[n+]2CC)Oc2ccc3ccccc3c21 |  | active: 31.6 µM |
| COc1ccc(/C=C/C(=O)OCC(=O)NCc2ccco2)cc1OC |  | active: 50.1 µM |
| CCN1C(=O)/C(=C2/Sc3ccccc3N2CCCS(=O)(=O)O)SC1=S | inactive: 6.33% |  |
| CC1(C)C2CCC1(C)C(Nc1ccccc1)C2 (stereo not given) | inactive: 32% |  |
| COc1ccc(C2=NS(=O)(=O)N(C)C(C(=O)Nc3cc(C)ccc3O)=C2)cc1OC | inactive: -4.71% |  |
| O=C1NC(=O)C(c2ccccc2[N+](=O)[O-])=C1Nc1ccc(O)c(Cl)c1 | inactive: -4.74% |  |
| CN1CCN(c2ccccc2NC(=O)c2ccc(F)cc2)CC1 | inactive: 31.8% |  |
| Oc1ccc(C2CNCCc3c2cc(O)c(O)c3Cl)cc1 (stereo not given) |  | inactive |

| Compound | activity change, negative = inhibition | Potency |
| --- | --- | --- |
| O=c1c(C=Nc2cccc(C(F)(F)F)c2)c[nH]n1-c1cccc(Cl)n1 |  | active: 89.1 µM |
| O=C1N=C(N2CCN(c3ccccc3)CC2)S/C1=C/c1ccco1 | inactive: -16% |  |
| NC(=O)CSc1oc(-c2ccco2)nc1S(=O)(=O)c1ccc(Cl)cc1 | inactive: -20.7% |  |
| CCCc1nc2c(=O)n(C)c(=O)nc-2n(C)n1 |  | active: 0.891 µM |
| Cc1ccc(N=C2NC(=O)/C(=C/c3cccs3)S2)cc1C | inactive: -14.9% |  |
| CCc1ccc(NC(=O)CCn2nc(C)c(S(=O)(=O)N3CCCCC3)c2C)cc1 | inactive: -21.9% |  |
| C=CC[C@H](CC(=O)N(CCO)Cc1ccccc1)C(=O)N[C@@H](COC(=O)[C@@H](CC=C)Cc1ccc(F)cc1)Cc1ccccc1 | inactive: -28.9% |  |
| Cc1cc(S(=O)(=O)N2CCN(C(=O)CCC(=O)N3CCOCC3)CC2)ccc1Br | inactive: 39.9% |  |
| C[C@H](NC(=O)[C@@H]1Cc2ccccc2CN1C(=O)OC(C)(C)C)C(=O)NCc1ccco1 | inactive: -7.85% |  |
| COc1ccccc1/C=C/C=N/n1c(-c2ccc(Cl)cc2)n[nH]c1=S | inactive: -7.63% |  |
| COc1cc(/C=N/NC(N)=O)cc([N+](=O)[O-])c1O |  | active: 50.1 µM |
| COc1ccc(C(=O)NNC(=O)Cc2coc3cc(OC)ccc23)cc1 |  | active: 20 µM |
| CCn1c(SCC(=O)Nc2ccccc2)nnc1-c1cccs1 | inactive: 43.3% |  |
| CCC(C)Sc1ccc([C@@H]2[C@@H]3C(=O)N(CC)C(=O)[C@@H]3[C@]3(C(=O)OC)CCCCN23)cc1 (stereo not given in full) | inactive: -11.7% |  |
| CC(=O)OCC1=C(C(=O)O)N2C(=O)C(NC(=O)COc3ccc(F)cc3)C2SC1 (stereo not given) |  | active: 8.91 µM |
| CN(C)c1ccc(/C=C(/C#N)C(=O)Nc2nc3c(s2)CCN(Cc2ccccc2)C3)cc1 | inactive: -13.6% |  |
| C[C@@H]1CN([C@@H](C)CO)C(=O)CCCn2nncc2CO[C@@H]1CN(C)C(=O)Nc1cccc(Oc2ccccn2)c1 | inactive: -14.3% |  |
| c1ccc(CSc2nnc3ccc(-c4ccco4)nn23)nc1 | inactive: 33.9% |  |
| CCCCN(CC)CCCNC(=O)c1cn(CC(C)C)c(=O)c2c1c1ccccc1n2C | inactive: -8.47% |  |
| COc1ccc(S(=O)(=O)N2CCCC2c2cccs2)cc1 (stereo not given) | inactive: 22.6% |  |

| Compound | activity change, negative = inhibition | Potency |
| --- | --- | --- |
| CC(=O)c1cc2c(cc1NC(=O)c1c(C)nn(-c3ccc(C)cc3)c1-n1cccc1)OCO2 | inactive: 18% |  |
| COc1ccc(C(=O)Cn2c(N3CCCCC3)nc3c2c(=O)n(C)c(=O)n3C)cc1OC | inactive: 31.9% |  |
| Cc1ccc(NC(=O)CN2C(=O)N/C(=C\c3ccco3)C2=O)cc1 | inactive: -6.85% |  |
| O=C(NC1CCCc2ccccc21)c1ccc2c(c1)sc1nc(-c3ccc(F)cc3)cn12 (stereo not given) | inactive: 23% |  |
| CC1=NN(c2ccc(Cl)c(C(=O)O)c2)C(=O)/C1=C/c1ccc(-c2ccccc2[N+](=O)[O-])o1 |  | active: 20 µM |
| Cc1cc(Br)ccc1OCc1nc(-c2cccnc2)no1 | inactive: 2.44% |  |
| COc1cc(NC(=O)Cc2cccs2)cc(OC)c1 | inactive: 29.9% |  |
| CCc1cccc(NS(=O)(=O)c2c(C)nc3sc(CC)nn3c2=O)c1 |  | inactive |
| N#C/C(=C\c1coc2ccc(O)cc2c1=O)C(=O)Nc1nc2ccccc2s1 |  | active: 3.55 µM |
| C/C(N)=C(/C#N)C(=O)CSc1nc2ccccc2[nH]1 |  | active: 50.1 µM |
| N#CC(=C(O)COC(=O)c1ccc2c(c1)OCCO2)c1nc2ccccc2[nH]1 | inactive: -9.58% |  |
| O=C(COc1ccccc1[N+](=O)[O-])OCC(=O)c1ccc(Br)s1 |  | active: 79.4 µM |
| C/C(=N\Nc1cccc(C(=O)O)c1)c1ccc2c(c1)Nc1ccccc1S2 |  | active: 20 µM |
| CNC(=O)c1cc(Nc2nnc(-c3ccc(O)cc3)c3ccccc23)ccc1OC | inactive: 0.653% |  |
| Oc1cc(O)c2c(c1)O[C@H](c1ccc(O)c(O)c1)[C@@H](O)C2 | inactive: -6.13% |  |
| CCOC(=O)c1ccc(N2CCN(c3ccc(F)cc3)CC2)c(NC(=O)Nc2cccc(OC)c2)c1 | inactive: -9.48% |  |
| COc1cc(NC(=O)Cn2ccn(Cc3ccccc3OC)c(=O)c2=O)cc(OC)c1 | inactive: 19.2% |  |
| Cc1cccc(Cn2c(C)c(C)c3cc(C(=O)NCc4ccco4)ccc32)c1 |  | active: 79.4 µM |
| CCCCN(CCCC)CCNC(=O)c1cn(CC)c2ccc(S(=O)(=O)N3CCc4ccccc4C3)cc2c1=O | inactive: -26.6% |  |
| C[C@H](/C=C/[C@@]1(O)[C@H](C)C[C@H](O)CC1(C)C)O[C@@H]1O[C@H](CO)[C@@H](O)[C@H](O)[C@H]1O | inactive: -19% |  |
